Measurements as given in the supplement of paper PMC12217912.
The list shows a part of the results. The full chains were built here from the parent and the listed change. Values near 0.05 are background.

B1: TEV protease; numbered along this chain (parent)
chain: MGESLFKGPRDYNPISSSICHLTNESDGHTTSLYGIGFGPFIITNKHLFRRNNGTLVVQSLHGVFKVKDTTTLQQHLVDGRDMIIIRMPKDFPPFPQKLKFREPQREERICLVTTNFQTKSMSSMVSDTSCTFPSGDGIFWKHWIQTKDGQCGSPLVSTRDGFIVGIHSASNFTNTNNYFTSVPKNFMELLTNQEAQQWVSGWRLNADSVLWGGHKVFMVKPEEPFQPVKEATQL

Variants of: B1
Experiment: raw area under fraction-flipped curve 0-4 h after induction (AUC4h, not background-subtracted), DNA-recorder readout of cleavage of the substrate (dimensionless); higher = more cleavage of the substrate by the protease variant
Settings: temperature: 34 °C; time window: 0-4 h after rhamnose induction
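Further: Bxb1 expression induced with 0.2% (w/v) L-rhamnose at OD600 near 0.5, cultures sampled hourly, flipped fraction per protease–substrate barcode pair counted by paired-end Illumina sequencing.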

Variant | area with substrate ENLYFCS | area with substrate ENLYFFS | area with substrate ENLYFIS | area with substrate ENLYFKS | area with substrate ENLYFLS | area with substrate ENLYFMS | area with substrate ENLYFNS | area with substrate ENLYFPS | area with substrate ENLYFRS | area with substrate ENLYFTS | area with substrate ENLYFES | area with substrate ENLYFSS | area with substrate ENLYFWS | area with substrate ENLYFGS | area with substrate ENLYFVS | area with substrate ENLYFYS | area with substrate ENLYFDS | area with substrate ENLYFHS
MGESLFKGPRDYNPISSSICHLTNESDGHTTSLYGIGFGPFIITNKHLFRRNNGTLVVQSLHGVFKVKDTTTLQQHLVDGRDMIIIRMPKDFPPFPQKLKFREPQREERICLVTTNFQTKSMSSMVSDTSCTFPSGDGIFWKHWIQTKDGQCGSPLVSTRDGFIVGIHSASNFPNTNNYFTSVPKNFMELLTNQEAQQWVSGWRLNADSVLWGGHKVFMVKPEEPFQPVKEATQL [T174P] | 0.0555 | 0.0586 | 0.059 | 0.0534 | 0.06 | 0.059 | 0.063 | 0.0559 | 0.0571 | 0.0516 |  |  |  |  |  |  |  | 
MGESLFKGPRDYNPISSSICHLTNESDGHTTSLYGIGFGPFIITNKHLFRRNNGTLVVQSLHGVFKVKDTTTLQQHLVDGRDMIIIRMPKDFPPFPQKLKFREPQREERICLVTTNFQTKSMSSMVSDTSCTFPSGDGIFWKHWIQTKDGQCGSPLVSTRDGFIVGIHSASNMTNTNNYFTSVPKNFMELLTNQEAQQWVSGWRLNADSVLWGGHKVFMVKPEEPFQPVKEATQL [F173M] | 0.0503 |  | 0.0481 |  |  | 0.08 |  | 0.0559 |  |  | 0.0613 | 0.0571 | 0.071 |  |  |  |  | 
MGESLFKGPRDYNPISSSICHLTNESDGHTTSLYGIGFGPFIITNKHLFRRNNGTLVVQSLHGVFKVKDTTTLQQHLVDGRDMIIIRMPKDFPPFPQKLKFREPQREERICLVTTNFQTKSMSSMVSDTSCTFPSGDGIFWKHWIQTKDGQCGSPLVSTRDSFIVGIHSASNFTNTNNYFTSVPKNFMELLTNQEAQQWVSGWRLNADSVLWGGHKVFMVKPEEPFQPVKEATQL [G162S] | 0.0656 | 0.0746 | 0.0589 | 0.0524 |  | 0.0489 | 0.0614 | 0.057 | 0.0689 | 0.0537 | 0.0561 |  | 0.0719 | 0.038 | 0.0681 | 0.0421 |  | 
MGESLFKGPRDYNPISSSICHLTNESDGHTTSLYGIGFGPFIITNKHLFRRNNGTLVVQSLHGVFKVKDTTTLQQHLVDGRDMIIIRMPKDFPPFPQKLKFREPQREERICLVTTNFQTKSMSSMVSDTSCTFPSGDGIFWKHWIQTKDGQCGSPLVSTRDGFIVGICSASNFTNTNNYFTSVPKNFMELLTNQEAQQWVSGWRLNADSVLWGGHKVFMVKPEEPFQPVKEATQL [H168C] | 0.0777 | 0.0506 | 0.0644 | 0.06 |  |  |  | 0.0711 |  | 0.0569 | 0.0677 |  | 0.063 |  |  |  | 0.0529 | 0.0514
MGESLFKGPRDYNPISSSICHLTNESDGHTTSLYGIGFGPFIITNKHLFRRNNGTLVVQSLHGVFKVKDTTTLQQHLVDGRDMIIIRMPKDFPPFPQKLKFREPQREERICLVTTNFQTKSMSSMVSDTSCTFPSGDGIFWKHWIQTKDGQCGSPLVSTRDGFIVGIHSASNFTNTNNYFTSVPKNFMERLTNQEAQQWVSGWRLNADSVLWGGHKVFMVKPEEPFQPVKEATQL [L190R] | 0.0556 |  | 0.0519 | 0.0624 | 0.0686 |  | 0.074 | 0.0542 | 0.0505 | 0.0538 | 0.0663 |  |  |  | 0.0482 | 0.0586 |  | 0.0643
MGESLFKGPRDYNPISSSICHLTNESDGHTTSLYGIGFGPFIITNKHLFRRNNGTLVVQSLHGVFKVKDTTTLQQHLVDGRDMIIIRMPKDFPPFPQKLKFREPQREERICLVTTNFQTKSMSSMVSDTSCTFPSGDGIFWKHWIQTKDGQCGSPLVSTRDGFIVGIHSASNFTNTNNYFTSVPKPFMELLTNQEAQQWVSGWRLNADSVLWGGHKVFMVKPEEPFQPVKEATQL [N186P] | 0.0339 | 0.0652 | 0.0454 | 0.0514 |  |  | 0.0628 | 0.0547 |  | 0.058 | 0.0575 |  | 0.0518 |  | 0.0411 | 0.0586 | 0.05 | 
MGESLFKGPRDYNPISSSICHLTNESDGHTTSLYGIGFGPFIITNKHLFRRNNGTLVVQSLHGVFKVKDTTTLQQHLVDGRDMIIIRMPKDFPPFPQKLKFREPQREERICLVTTNFQTKSMSSMVSDTSCTFPSGDGIFWKHWIQTKDGQCGSPLVSTRDGFIVGIHSASNFTETNNYFTSVPKNFMELLTNQEAQQWVSGWRLNADSVLWGGHKVFMVKPEEPFQPVKEATQL [N175E] | 0.0692 | 0.0649 | 0.068 | 0.0594 |  | 0.0573 |  | 0.0653 | 0.0668 | 0.0428 | 0.0594 |  | 0.0617 |  |  | 0.0589 | 0.0772 | 
MGESLFKGPRDYNPISSSICHLTNESDGHTTSLYGIGFGPFIITNKHLFRRNNGTLVVQSLHGVFKVKDTTTLQQHLVDGRDMIIIRMPKDFPPFPQKLKFREPQREERICLVTTNFQTKSMSSMVSDTSCTFPSGDGIFWKHWIQTKDGQCGSPLVSTRDGFIVGIHSASNFTNTNNYWTSVPKNFMELLTNQEAQQWVSGWRLNADSVLWGGHKVFMVKPEEPFQPVKEATQL [F180W] | 0.0519 | 0.0616 | 0.0498 | 0.0651 |  |  | 0.0623 | 0.0546 |  | 0.0546 | 0.098 | 0.0685 |  |  |  |  | 0.0564 | 0.0569
MGESLFKGPRDYNPISSSICHLTNESDGHTTSLYGIGFGPFIITNKHLFRRNNGTLVVQSLHGVFKVKDTTTLQQHLVDGRDMIIIRMPKDFPPFPQKLKFREPQREERICLVTTNFQTKSMSSMVSDTSCTFPSGDGIFWKHWIQTKDGQCGSPLVSTRDGFIVGIHSASNFTNTNNYFTSVPKNFMELMTNQEAQQWVSGWRLNADSVLWGGHKVFMVKPEEPFQPVKEATQL [L191M] | 0.0272 | 0.0656 | 0.0555 | 0.0576 |  | 0.0628 | 0.0614 | 0.0741 | 0.0619 | 0.0614 | 0.0667 |  | 0.0671 |  | 0.0598 | 0.0562 | 0.0617 | 0.0714
MGESLFKGPRDYNPISSSICHLTNESDGHTTSLYGIGFGPFIITNKHLFRRNNGTLVVQSLHGVFKVKDTTTLQQHLVDGRDMIIIRMPKDFPPFPQKLKFREPQREERICLVTTNFQTKSMSSMVSDTSCTFPSGDGIFWKHWIQTKDGQCGSPLVSTRDGFIVGIHSASNFTNTNNYFTSRPKNFMELLTNQEAQQWVSGWRLNADSVLWGGHKVFMVKPEEPFQPVKEATQL [V183R] | 0.0663 | 0.0449 | 0.0485 |  |  |  | 0.0405 | 0.0426 | 0.0545 |  | 0.0636 | 0.0355 |  | 0.0412 |  | 0.0478 | 0.0568 | 
